Results from the supplement of paper PMC6657886.
MIC of clinical N. gonorrhoeae isolates (2015-2017) by agar dilution on GC agar with 1% IsoVitaleX (ranges not stated); higher = less susceptible. No active / inactive call per row; the paper counts benzylpenicillin above 1 and ceftriaxone above 0.125 mg/L as resistant (EUCAST). The method is stated for benzylpenicillin and ceftriaxone and assumed for the other drugs. '<=' is inferred from pile-ups at the end values. Isolates are numbered anew.

Key:
Experiment in all cases: Agar dilution on enriched GC agar; resistance determinants by microarray.
tetracycline = compound: CN(C)[C@@H]1C(O)=C(C(N)=O)C(=O)[C@@]2(O)C(O)=C3C(=O)c4c(O)cccc4[C@@](C)(O)[C@H]3C[C@@H]12 [tetracycline]
azithromycin = compound: CC[C@H]1OC(=O)[C@H](C)[C@@H](O[C@H]2C[C@@](C)(OC)[C@@H](O)[C@H](C)O2)[C@H](C)[C@@H](O[C@@H]2O[C@H](C)C[C@H](N(C)C)[C@H]2O)[C@](C)(O)C[C@@H](C)CN(C)[C@H](C)[C@@H](O)[C@]1(C)O [azithromycin]
spectinomycin = compound: CN[C@@H]1[C@H](O)[C@H](NC)[C@H]2O[C@@]3(O)C(=O)C[C@@H](C)O[C@H]3O[C@@H]2[C@H]1O [spectinomycin]
benzylpenicillin = compound: CC1(C)S[C@@H]2[C@H](NC(=O)Cc3ccccc3)C(=O)N2[C@H]1C(=O)O [benzylpenicillin]
ceftriaxone = compound: CO/N=C(\C(=O)N[C@@H]1C(=O)N2C(C(=O)O)=C(CSc3nc(=O)c(O)nn3C)CS[C@H]12)c1csc(N)n1 [ceftriaxone]

Row | Test System | MIC (tetracycline) | MIC (azithromycin) | MIC (spectinomycin) | MIC (benzylpenicillin) | MIC (ceftriaxone)
1 | Neisseria gonorrhoeae isolate 110 (blaTEM plasmid: no, gyrA: wild type, mtrR promoter: wild type, parC: wild type, penA: wild type, ponA: wild type, porB: wild type, rpsJ: wild type, tetM plasmid: no) | 0.5 µg/mL | 0.12 µg/mL | 32 µg/mL | ≤ 0.015 µg/mL | 0.004 µg/mL
2 | Neisseria gonorrhoeae isolate 169 (blaTEM plasmid: no, gyrA: wild type, mtrR promoter: wild type, parC: wild type, penA: ins345Asp, ponA: wild type, porB: wild type, rpsJ: wild type, tetM plasmid: no) | 0.06 µg/mL | 0.004 µg/mL | 32 µg/mL | 0.06 µg/mL | 0.004 µg/mL
3 | Neisseria gonorrhoeae isolate 162 (blaTEM plasmid: no, gyrA: wild type, mtrR promoter: -35delA, parC: wild type, penA: ins345Asp, ponA: wild type, porB: wild type, rpsJ: wild type, tetM plasmid: no) | 0.25 µg/mL | 0.12 µg/mL | 16 µg/mL | 0.03 µg/mL | ≤ 0.002 µg/mL
4 | Neisseria gonorrhoeae isolate 305 (blaTEM plasmid: no, gyrA: wild type, mtrR promoter: wild type, parC: wild type, penA: ins345Asp, ponA: wild type, porB: wild type, rpsJ: wild type, tetM plasmid: no) | 0.5 µg/mL | 0.12 µg/mL | 16 µg/mL | 0.12 µg/mL | 0.008 µg/mL
5 | Neisseria gonorrhoeae isolate 202 (blaTEM plasmid: no, gyrA: wild type, mtrR promoter: wild type, parC: wild type, penA: wild type, ponA: wild type, porB: wild type, rpsJ: wild type, tetM plasmid: no) | 0.06 µg/mL | 0.008 µg/mL | 32 µg/mL | ≤ 0.015 µg/mL | ≤ 0.002 µg/mL
6 | Neisseria gonorrhoeae isolate 232 (blaTEM plasmid: no, gyrA: wild type, mtrR promoter: wild type, parC: wild type, penA: ins345Asp, ponA: wild type, porB: wild type, rpsJ: wild type, tetM plasmid: no) | 0.5 µg/mL | 0.12 µg/mL | 32 µg/mL | 0.03 µg/mL | 0.004 µg/mL
7 | Neisseria gonorrhoeae isolate 21 (blaTEM plasmid: no, gyrA: Phe91, Gly95, mtrR promoter: wild type, parC: Arg87, Glu91, penA: ins345Asp, ponA: Pro421, porB: wild type, rpsJ: Met57, tetM plasmid: no) | 0.25 µg/mL | 0.12 µg/mL | 32 µg/mL | 0.5 µg/mL | ≤ 0.002 µg/mL
8 | Neisseria gonorrhoeae isolate 430 (blaTEM plasmid: no, gyrA: Phe91, Asn95, mtrR promoter: -35delA, parC: Arg87, Glu91, penA: ins345Asp, ponA: Pro421, porB: wild type, rpsJ: Met57, tetM plasmid: no) | 2 µg/mL | 0.5 µg/mL | 16 µg/mL | 0.5 µg/mL | 0.008 µg/mL
9 | Neisseria gonorrhoeae isolate 311 (blaTEM plasmid: no, gyrA: Thr91, Gly95, mtrR promoter: wild type, parC: wild type, penA: wild type, ponA: wild type, porB: wild type, rpsJ: wild type, tetM plasmid: no) | 0.03 µg/mL | 0.06 µg/mL | 16 µg/mL | 0.12 µg/mL | 0.004 µg/mL
10 | Neisseria gonorrhoeae isolate 182 (blaTEM plasmid: no, gyrA: wild type, mtrR promoter: wild type, parC: wild type, penA: ins345Asp, ponA: Pro421, porB: wild type, rpsJ: wild type, tetM plasmid: no) | 0.5 µg/mL | 0.12 µg/mL | 16 µg/mL | 0.12 µg/mL | ≤ 0.002 µg/mL
11 | Neisseria gonorrhoeae isolate 59 (blaTEM plasmid: no, gyrA: Phe91, Asn95, mtrR promoter: -35delA, parC: Arg87, Glu91, penA: ins345Asp, ponA: Pro421, porB: wild type, rpsJ: Met57, tetM plasmid: no) | 1 µg/mL | 0.25 µg/mL | 32 µg/mL | 0.5 µg/mL | 0.03 µg/mL
12 | Neisseria gonorrhoeae isolate 186 (blaTEM plasmid: no, gyrA: wild type, mtrR promoter: wild type, parC: wild type, penA: wild type, ponA: wild type, porB: wild type, rpsJ: wild type, tetM plasmid: no) | 0.25 µg/mL | 0.015 µg/mL | 32 µg/mL | ≤ 0.015 µg/mL | ≤ 0.002 µg/mL
13 | Neisseria gonorrhoeae isolate 464 (blaTEM plasmid: no, gyrA: Phe91, Gly95, mtrR promoter: wild type, parC: Arg87, Glu91, penA: ins345Asp, ponA: Pro421, porB: Asp120, Ala121, rpsJ: Met57, tetM plasmid: no) | 1 µg/mL | 0.06 µg/mL | 32 µg/mL | 0.25 µg/mL | 0.008 µg/mL
14 | Neisseria gonorrhoeae isolate 270 (blaTEM plasmid: no, gyrA: wild type, mtrR promoter: wild type, parC: wild type, penA: wild type, ponA: wild type, porB: wild type, rpsJ: wild type, tetM plasmid: no) | 0.12 µg/mL | 0.12 µg/mL | 16 µg/mL | ≤ 0.015 µg/mL | ≤ 0.002 µg/mL
15 | Neisseria gonorrhoeae isolate 230 (blaTEM plasmid: no, gyrA: Phe91, Ala 95, mtrR promoter: wild type, parC: Arg 87, Glu91, penA: ins345Asp, ponA: wild type, porB: Asp120, Gly121, rpsJ: Met57, tetM plasmid: yes) | 4 µg/mL | 0.03 µg/mL | 16 µg/mL | 0.06 µg/mL | ≤ 0.002 µg/mL
16 | Neisseria gonorrhoeae isolate 396 (blaTEM plasmid: no, gyrA: wild type, mtrR promoter: wild type, parC: wild type, penA: wild type, ponA: wild type, porB: wild type, rpsJ: wild type, tetM plasmid: no) | 0.25 µg/mL | 0.25 µg/mL | 16 µg/mL | ≤ 0.015 µg/mL | ≤ 0.002 µg/mL
17 | Neisseria gonorrhoeae isolate 64 (blaTEM plasmid: no, gyrA: wild type, mtrR promoter: wild type, parC: wild type, penA: ins345Asp, ponA: wild type, porB: Asp120, Ala121, rpsJ: Met57, tetM plasmid: no) | 0.5 µg/mL | 0.06 µg/mL | 16 µg/mL | 0.25 µg/mL | 0.004 µg/mL
18 | Neisseria gonorrhoeae isolate 196 (blaTEM plasmid: no, gyrA: wild type, mtrR promoter: wild type, parC: wild type, penA: ins345Asp, ponA: wild type, porB: wild type, rpsJ: wild type, tetM plasmid: no) | 0.25 µg/mL | 0.03 µg/mL | 32 µg/mL | 0.06 µg/mL | ≤ 0.002 µg/mL
19 | Neisseria gonorrhoeae isolate 34 (blaTEM plasmid: no, gyrA: Phe91, Asn 95, mtrR promoter: -35delA, parC: Arg87, Glu91, penA: ins345Asp, ponA: Pro421, porB: wild type, rpsJ: Met57, tetM plasmid: no) | 0.5 µg/mL | 0.12 µg/mL | 32 µg/mL | 1 µg/mL | 0.004 µg/mL
20 | Neisseria gonorrhoeae isolate 29 (blaTEM plasmid: no, gyrA: wild type, mtrR promoter: wild type, parC: wild type, penA: ins345Asp, ponA: wild type, porB: wild type, rpsJ: wild type, tetM plasmid: no) | 0.12 µg/mL | 0.015 µg/mL | 32 µg/mL | 0.25 µg/mL | ≤ 0.002 µg/mL
21 | Neisseria gonorrhoeae isolate 345 (blaTEM plasmid: no, gyrA: Phe91, Gly95, mtrR promoter: wild type, parC: Arg87, Glu91, penA: ins345Asp, ponA: Pro421, porB: Asp120, Ala121, rpsJ: wild type, tetM plasmid: no) | 2 µg/mL | 0.015 µg/mL | 32 µg/mL | 0.5 µg/mL | ≤ 0.002 µg/mL
22 | Neisseria gonorrhoeae isolate 208 (blaTEM plasmid: no, gyrA: wild type, mtrR promoter: wild type, parC: wild type, penA: ins345Asp, ponA: wild type, porB: wild type, rpsJ: Met57, tetM plasmid: no) | 1 µg/mL | 0.5 µg/mL | 16 µg/mL | 0.12 µg/mL | 0.004 µg/mL
23 | Neisseria gonorrhoeae isolate 170 (blaTEM plasmid: no, gyrA: Phe91, Asn95, mtrR promoter: -35delA, parC: Arg87, Glu91, penA: ins345Asp, ponA: wild type, porB: wild type, rpsJ: Met57, tetM plasmid: no) | 1 µg/mL | 0.5 µg/mL | 32 µg/mL | 2 µg/mL | 0.004 µg/mL
24 | Neisseria gonorrhoeae isolate 132 (blaTEM plasmid: no, gyrA: Phe91, Asn95, mtrR promoter: -35delA, parC: Arg 87, Glu91, penA: ins345Asp, ponA: Pro421, porB: Lys120, Asn121, rpsJ: Met57, tetM plasmid: no) | 2 µg/mL | 0.5 µg/mL | 16 µg/mL | 0.25 µg/mL | 0.032 µg/mL
25 | Neisseria gonorrhoeae isolate 420 (blaTEM plasmid: no, gyrA: wild type, mtrR promoter: wild type, parC: wild type, penA: ins345Asp, ponA: wild type, porB: wild type, rpsJ: wild type, tetM plasmid: no) | 0.5 µg/mL | 0.06 µg/mL | 16 µg/mL | 0.06 µg/mL | ≤ 0.002 µg/mL
